In the RNAGym collection of RNA variant scans (doi:10.1093/nar/gkz1192):
Read counts are not given, so values of variants with three or more changes are uncertain.

B1: CPEB3 Ribozyme (parent)
chain: UAACAGGGGGCCACAGCAGAAGCGUUCACGUCGCAGCCCCUGUCAGAUUCUGGUGAAUCUGCGAAUUCUGCUGUAUAUCUC

Variants of: B1
Assay: self-cleavage, relative activity (ratio to wild type); higher = more cleavage; in vitro, sequencing
Summary of the method: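 Barcoded CPEB3 ribozyme mutants, produced by rounds of error-prone PCR, self-cleaved while being transcribed with T7 RNA polymerase for 5 hours at 37°C and during a subsequent 15 min DNase I step before EDTA was added. Sequencing of template-switched cDNA on Illumina gave cleaved and total reads, and DNA sequencing assigned barcodes to variants. Each variant's relative activity is its cleaved/total read fraction divided by the unmutated ribozyme's fraction, averaged across three batches. A variant needed a minimum of 5 reads.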

Variant | self-cleavage
A3G U26C A64U | 0.16
A3G U26C C40U A47G U72A | 0.05
A3G U26C G46A U54C U72A | 0.05
A3G U26C U31C U48A | 0.15
A3G U26C U31C U49A | 0.51
A3G U26C U41A U76A | 0.6
A3G U26C U41C | 0.69
A3G U26C U41G A47G U51A U72C | 0.04
A3G U26C U51A A57G U76A | 0.09
A3G U26C U69C A77G | 0.32
A3G U31A U43C | 0.39
A3G U31A U54A | 0.74
A3G U31C A35G | 1.19
A3G U31C A35U A45C G63C | 0.1
A3G U31C A45G U80A | 0.49
A3G U31C G33A G63U A64G | 0.07
A3G U31C U48A | 0.35
A3G U31C U60C A64G | 0.19
A3G U31C U60C A64G U67C U78C | 0.14
A3G U41A A57G | 0.25
A3G U41A U49C A75G | 0.3
A3G U41A U54A A56G | 0.1
A3G U41C A45G A56U | 0.63
A3G U41C A65G C71G U74C C81A | 0.37

Variant | self-cleavage
A3G U41C U69C A75U | 0.5
A3G U41G A56G U69C | 0.35
A3G U41G U58A U69C U74A | 0.09
A3G U43A A45G | 1.06
A3G U43A A47G | 1.08
A3G U43A U58C | 0.47
A3G U43C C79A | 0.52
A3G U43C U49A U51C U54A U72C | 0.12
A3G U43C U51C | 0.4
A3G U43C U58A | 0.26
A3G U43C U72C U78C | 0.17
A3G U48C G61C | 0.07
A3G U48C U49C U67C U74C U76C | 0.23
A3G U48C U72C | 0.89
A3G U49A U51A A57G A65G | 0.08
A3G U49A U51A A57U | 0.12
A3G U49C U76A | 0.44
A3G U49G A57G A64G A65G | 0.2
A3G U51A A57U | 0.38
A3G U51A U54C U60A A64U | 0.33
A3G U51A U60C | 0.68
A3G U51A U66A U80C | 0.28
A3G U51C A56G U74A | 1.22
A3G U51C A57G G73A | 1.25

Variant | self-cleavage
A3G U51C A64G A65G U78C | 0.19
A3G U51C A65G | 0.85
A3G U54A C68G A77U | 0.72
A3G U54A U60C U80C | 0.84
A3G U54C A56G G73U | 1.24
A3G U54C A57U G61A A64U | 0.25
A3G U54C U60C U80C | 0.56
A3G U54C U67C | 0.32
A3G U54G U58C U60C | 0.27
A3G U58A U69C | 0.21
A3G U66C C71U | 0.43
A3G U67A U72C | 0.48
A3G U67C U80C | 0.52
A3G U69C C79A | 0.8
A3G U69G A77U | 0.59
A3U A5C G24C U26C A45G U66C | 0.07
A3U A5G A13G U74C | 0.34
A3U A5G A15G U54C U60C | 0.19
A3U A5G A57G U69C | 0.1
A3U A5G C17U | 0.68
A3U A5G C79U | 0.97
A3U A5G G7U A18G A28U C44U | 0.27
A3U A5G G24C U69C C79A U80C | 0.14
A3U A5G G33A G42A | 0.39

Variant | self-cleavage
A3U A5G U26C A56G | 0.41
A3U A5G U26C G73A U78A | 0.42
A3U A5G U74C | 0.98
A3U A5U C11A U41C A47G | 0.36
A3U A5U G9A A28G | 0.13
A3U A5U U41A U54C | 0.14
A3U A13C G16C A20G A45G U49C | 0
A3U A13G A15C A18G A21G C23U A45G | 0.17
A3U A13G A15G A57G U76C | 0.36
A3U A13G A28C U54C U66C | 0.21
A3U A13G C44G A64C U67A U74A A77G | 0.02
A3U A13G U58A U78C | 0.46
A3U A13U A18U U25C A45U U51A | 0.21
A3U A13U A20G U25C | 0.1
A3U A13U A28G A35G U51A U58A C81G | 0.75
A3U A13U A57G C79U | 1.22
A3U A13U U25C G33A U51C C62U A77C | 0.2
A3U A13U U26A A45G A57G | 0.9
A3U A13U U41A U78C | 0.11
A3U A13U U41G U58C | 0.15
A3U A13U U58A U72C | 0.46
A3U A15C A20C U25C U60C | 0.45
A3U A15C A21G U31C G46A A64G | 0.06
A3U A15C A28G U41C A65U U69A U80C | 0.19

Variant | self-cleavage
A3U A15C U69C | 0.68
A3U A15G A20G U60C | 0.25
A3U A15G A77G | 0.86
A3U A15G U26A A28C U58C | 0.31
A3U A15G U49A A77U U78C | 1
A3U A15U A18G A56U | 0.2
A3U A15U G30U A45U U78C | 0.22
A3U A15U G63A U76C U80C | 1.16
A3U A18C U60A | 0.42
A3U A18G A20C C34U A35G A64G U80A | 0.15
A3U A18G U25C A47U U54C | 0.2
A3U A18G U26A | 0.54
A3U A18G U26C U41C U43C A64G U67A | 0.05
A3U A18G U43C U78C | 0.4
A3U A18G U67C U72A U78C | 0.13
A3U A18U U51C A56G | 0.39
A3U A20G A21G | 0.64
A3U A20G A45C | 0.45
A3U A20G U41A | 0.33
A3U A20G U48A U54A A64G | 0.25
A3U A20U A28U A64G | 0.44
A3U A20U G33U C38U U69C A75G U80C | 0.08
A3U A20U U60C U74C | 0.41
A3U A21G A64G | 0.58

Variant | self-cleavage
A3U A28C A35G C39A U51C | 0.35
A3U A28G C39U A47U | 0.08
A3U A28G U51C U60C | 0.07
A3U A28U C59A A64U | 0.16
A3U A28U G42A | 0.64
A3U A35G U67A | 1.18
A3U A35U A64U | 0.33
A3U A47G A57G U58A | 0.52
A3U A56U U69C U72C | 0.43
A3U A57G U69C U72C U80C | 0.41
A3U A64U U74G | 0.32
A3U A65G G73C | 0.8
A3U A77G U78C | 0.71
A3U C4A A13G C17A U43A U80A | 0.6
A3U C4A A20G G46A A47U A56G U58C | 0.14
A3U C4A C37U U49C A64G U67C | 0.1
A3U C4U U25C A57G A75U | 0.53
A3U C11A A15U G22A A64G | 0.2
A3U C11A U54A U69C | 0.21
A3U C11A U69C | 0.5
A3U C11G A20G G24A A28G U31A C32U | 0.06
A3U C11G U51C | 0.69
A3U C11U G61C U66C U80A | 0.15
A3U C11U U31C U48C A65G | 0.06

Variant | self-cleavage
A3U C12U A13G A20G U25A U26C A56G | 0.05
A3U C12U G19C U51C G52C U67C | 0.1
A3U C12U G30C C79A | 0.33
A3U C14A A18U U43C A56U U66C | 0.28
A3U C29A C34A A56U | 0.26
A3U C29U U43C | 0.23
A3U C29U U72C | 0.76
A3U C39A U60A | 0.39
A3U C39G U48G A56U A65G | 0.09
A3U C40G U51C U60A A77U | 0.14
A3U G6C G30A A56G U72A U74C | 0.11
A3U G6U U31C A35U U54C G73A | 0.41
A3U G7A A28U C32A U41C U51C A65C | 0.06
A3U G7A A65U U78C | 0.14
A3U G8A A64G U69C | 0.21
A3U G8C U26C A64U U72C | 0.07
A3U G8U A13U A18G U72C | 0.1
A3U G8U A18U C39U U41C A75G U78C | 0.04
A3U G8U U60C U69C | 0.17
A3U G10C G16A | 0.28
A3U G16A A64U U72C | 0.13
A3U G19C C40U U66A U69A | 0.06
A3U G19U U31C U51A A64U U69C | 0.11
